# Experimental data published in patent US20230416360A1 (SIMCERE ZAIMING PHARMACEUTICAL, published 2023).
# T1: human CD22 (full length, on cells) (human, UniProt P20273 20-847)
# T1 construct: Raji cells carry endogenous human CD22; also called CHO-K1-human CD22 2C4; CHO-K1-human CD22 1G5
# T1 sequence: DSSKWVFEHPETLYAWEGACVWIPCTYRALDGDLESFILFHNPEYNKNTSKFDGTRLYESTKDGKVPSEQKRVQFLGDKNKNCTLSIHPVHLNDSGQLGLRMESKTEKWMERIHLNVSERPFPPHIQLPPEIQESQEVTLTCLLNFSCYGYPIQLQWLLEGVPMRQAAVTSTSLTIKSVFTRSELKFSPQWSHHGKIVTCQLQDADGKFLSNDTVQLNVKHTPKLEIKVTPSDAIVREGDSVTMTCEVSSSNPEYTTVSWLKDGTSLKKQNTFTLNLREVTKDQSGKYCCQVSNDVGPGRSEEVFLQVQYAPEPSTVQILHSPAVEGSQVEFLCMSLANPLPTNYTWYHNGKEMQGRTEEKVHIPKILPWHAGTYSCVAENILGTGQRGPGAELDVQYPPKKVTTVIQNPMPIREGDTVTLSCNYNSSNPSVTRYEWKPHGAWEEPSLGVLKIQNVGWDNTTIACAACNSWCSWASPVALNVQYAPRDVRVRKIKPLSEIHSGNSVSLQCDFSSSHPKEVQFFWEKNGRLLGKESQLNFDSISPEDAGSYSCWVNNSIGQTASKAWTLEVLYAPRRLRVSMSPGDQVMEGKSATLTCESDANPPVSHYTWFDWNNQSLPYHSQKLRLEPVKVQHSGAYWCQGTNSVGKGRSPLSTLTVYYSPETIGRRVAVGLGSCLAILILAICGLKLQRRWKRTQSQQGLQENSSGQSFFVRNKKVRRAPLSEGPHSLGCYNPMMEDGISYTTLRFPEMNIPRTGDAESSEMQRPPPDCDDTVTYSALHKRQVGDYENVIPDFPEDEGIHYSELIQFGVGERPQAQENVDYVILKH
# T2: murine CD22-ECD-His (mouse, UniProt P35329 22-708)
# T2 construct: extracellular domain; Bought; also called mouse CD22; murine CD22 protein
# T2 sequence (looked up): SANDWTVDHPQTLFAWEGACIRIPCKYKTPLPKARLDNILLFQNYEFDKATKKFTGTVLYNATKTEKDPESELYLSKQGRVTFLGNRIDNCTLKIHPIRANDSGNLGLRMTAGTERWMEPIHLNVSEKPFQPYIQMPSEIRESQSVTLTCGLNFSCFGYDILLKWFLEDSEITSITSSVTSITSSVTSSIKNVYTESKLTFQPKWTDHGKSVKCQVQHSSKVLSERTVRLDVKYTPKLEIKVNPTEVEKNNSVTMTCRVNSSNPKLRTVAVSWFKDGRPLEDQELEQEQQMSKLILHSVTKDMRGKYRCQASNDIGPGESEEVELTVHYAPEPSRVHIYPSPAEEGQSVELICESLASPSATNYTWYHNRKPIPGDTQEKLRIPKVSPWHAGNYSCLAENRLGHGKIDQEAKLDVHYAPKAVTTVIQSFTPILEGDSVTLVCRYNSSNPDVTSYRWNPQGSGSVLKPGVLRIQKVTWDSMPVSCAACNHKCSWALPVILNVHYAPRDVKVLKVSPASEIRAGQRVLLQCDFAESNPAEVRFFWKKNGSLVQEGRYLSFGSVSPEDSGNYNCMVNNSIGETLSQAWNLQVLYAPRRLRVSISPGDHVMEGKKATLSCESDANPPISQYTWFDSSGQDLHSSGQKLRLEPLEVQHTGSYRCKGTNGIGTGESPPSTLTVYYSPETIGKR
# B1: S002-NB151-82 VHH-Fc (Fc fusion)
# chain: EVQVVESGGGLVQAGDSLRLSCTTSGRTFYGDYIAWFRQAPGKEREFVAAIAVRGRGTFYGDSVKGRFTISRDNAENTLSLQMNSLKPEDTAVYYCAADAGSYASRGFPVRETGRYDYWGQGTQVTVSS[human IgG1 Fc with changes cut from this listing]
# notes: VHH cloned into vector BI3.4-huIgG1 (hinge and human IgG1 Fc), made in HEK293E; also called 5002-NB151-82
# B2: S002-NB151-23 VHH-Fc (Fc fusion)
# chain: QVQLVESGGGLVQAGGSLTVSCTNSGRTLSTSTIAWFRQKPGKDSEFVAAIRWSGGMGWYADSVKGRFTISRDNAENTVSLQMNTLQPEDTAVYFCAVSTVPYYGSIYTRVGDYPYWGQGTQVTVSS[human IgG1 Fc with changes cut from this listing]
# notes: VHH cloned into vector BI3.4-huIgG1 (hinge and human IgG1 Fc), made in HEK293E; also called 5002-NB151-23
# B3: S002-NB151-2 VHH-Fc (Fc fusion)
# chain: QVQLVESGGGLVQAGDSLRLSCAASGRTFSPSTMAWFRQAPGKERELVARIGWTYGDTYYVDSAKGRFTISMDNVKNTVYLQMNSLKPEDTAVYYCAALFRGGLSYNFSNRGTQVTVSS[human IgG1 Fc with changes cut from this listing]
# notes: VHH cloned into vector BI3.4-huIgG1 (hinge and human IgG1 Fc), made in HEK293E; also called 5002-NB151-2
# B4: HA22 scFv-hFc (Fc fusion)
# chain: EVQLVESGGGLVKPGGSLKLSCAASGFAFSIYDMSWVRQTPEKCLEWVAYISSGGGTTYYPDTVKGRFTISRDNAKNTLYLQMSSLKSEDTAMYYCARHSGYGTHWGVLFAYWGQGTLVTVSAGGGGSGGGGSGGGGSDIQMTQTTSSLSASLGDRVTISCRASQDISNYLNWYQQKPDGTVKLLIYYTSILHSGVPSRFSGSGSGTDYSLTISNLEQEDFATYFCQQGNTLPWTFGCGTKLEIK[human IgG1 Fc with changes cut from this listing]
# B5: S002-NB151-66 VHH-Fc (Fc fusion)
# chain: QVQLVESGGGLVQAGGSLRLACAASGDTVSIYYMGWFRQAPGKEREFVGALSASGQFTDHADSVKGRFTISRDDAQNTVFLHMNDLKPEDTAVYYCAVQRYGWVYRTDKTMYNYWGQGTQVTVSS[human IgG1 Fc with changes cut from this listing]
# notes: VHH cloned into vector BI3.4-huIgG1 (hinge and human IgG1 Fc), made in HEK293E
# B6: S002-NB151-13 VHH-Fc (Fc fusion)
# chain: QVQLVESGGGLVQAGDSLRLSCAASTRIFRSYVMGWFRQAPGKEREAVASIRWSNDTGTYADSVKGRFTISRDNAKNTVYLQMNSLKPEDTAVYSCAADSPPWGRTWYTGYDYWGQGTQVTVSS[human IgG1 Fc with changes cut from this listing]
# notes: as for B5
# B7: S002-NB151-92 VHH-Fc (Fc fusion)
# chain: QVQLVESGGGLVQSGGSLRLSCAASGFTFSDYTMNWVRQAPGKGLEWVSEISSGGHFKSNADSVKDRFTISRDNAKNTLYLQMNSLKPEDTAVYFCAKCPRPSVYCRDYESTSLYRGQGTQVTVSS[human IgG1 Fc with changes cut from this listing]
# notes: VHH cloned into vector BI3.4-huIgG1 (hinge and human IgG1 Fc), made in HEK293E; also called 5002-NB151-92
# B8: S002-NB151-51 VHH-Fc (Fc fusion)
# chain: QVQLVESGGGLVQAGGSLRLSCAASGITSDDYAIGWFRQAPGKEREGVSCMYSSDGSTYYADSVKGRFTISRDNAKNTVYLQMNSLRPEDTAVYHCAAGPWCFVTGVGREEWGQGTQVTVSS[human IgG1 Fc with changes cut from this listing]
# notes: VHH cloned into vector BI3.4-huIgG1 (hinge and human IgG1 Fc), made in HEK293E; also called 5002-NB151-51
# B9: S002-NB150-2 VHH-Fc (Fc fusion)
# chain: QVQLVESGGGLVQPGGSLRLSCAASGSWFNIAMGWFRQAPGKEREFVAGIRWSDSKTYYADSVKGRFTISGDNAKNTTYLQMNSLKPEDTAVYYCAAQRYYRGSYNRQTNYDHWGQGTQVTVSS[human IgG1 Fc with changes cut from this listing]
# notes: VHH cloned into vector BI3.4-huIgG1 (hinge and human IgG1 Fc), made in HEK293E; also called 5002-NB150-2
# B10: S002-NB151-30 VHH-Fc (Fc fusion)
# chain: QVQLVESGGGLVQAGGSLRLSCAASGRASGSGAMGWFRQAPGQERRFVAGIEWSSGGPVYADSVKGRFTLSRDNAKNTVHLQMNSLKPEDTAVYYCAAAPWVFSSPDDYMYWGQGTQVTVSS[human IgG1 Fc with changes cut from this listing]
# notes: VHH cloned into vector BI3.4-huIgG1 (hinge and human IgG1 Fc), made in HEK293E; also called 5002-NB151-30
# B11: S002-NB150-159n VHH-Fc (Fc fusion)
# chain: QVQLVESGGGLVQAGDSLRLACEASGRTATISTMGWFRQAPGKEREFVGRIDWSAESTYIVDSVKGRFIISRDNAKNAGYLQMNSLKPVDTAVYYCAAIVVRERSYKYWGQGTQVTVSS[human IgG1 Fc with changes cut from this listing]
# notes: VHH cloned into vector BI3.4-huIgG1 (hinge and human IgG1 Fc), made in HEK293E; also called S002-NB150-15911
# Molecular target: T1, human CD22 (full length, on cells)
# Experiment: FACS, Raji cells
# Excerpt: (§1) The required cells were scale-up cultured in a T-75 cell culture flask to the logarithmic growth phase. For the adherent cell CHO-K1, the medium was aspirated, the cells were washed 2 times with PBS buffer, and then digested with trypsin. After the digestion was terminated, the cells were washed 2 times with PBS buffer. For suspension cell Raji, the medium supernatant was directly centrifuged and discarded, and the cell pellet was washed 2 times with PBS. […] The mixture was centrifuged and washed 3 times with PBS buffer, Alexa Flour 488-labeled secondary antibody (purchased from Invitrogen, catalog number: A-11013) was added at 50 μl/well, and incubated on ice for 1 hour. The obtained mixture was centrifuged and washed 5 times with PBS, and FACS (FACS Canto™, purchased from BD Company) was used for detection and result analysis. Data analysis was performed by software (CellQuest) to obtain the mean fluorescence density (MFI) of the cells. And then software (GraphPad Prism8) was used for analysis, data fitting, and EC50 value calculation.
Binder,EC50,Max MFI
B1,0.31 nM,2170
B2,0.49 nM,2200
B3,0.32 nM,4200
B4,0.83 nM,2520
B5,0.48 nM,2310
B6,0.45 nM,3960
B7,0.68 nM,3920
B8,0.4 nM,2380
B9,0.25 nM,4110
B10,0.8 nM,2330
B11,0.37 nM,1870

# Molecular target: T1, human CD22 (full length, on cells)
# Experiment: FACS, CHO-K1-human CD22 2C4 cells
# Excerpt: as §1
Binder,EC50,Max MFI
B1,1.67 nM,13000
B2,2.02 nM,11800
B3,1.17 nM,17900
B4,1.89 nM,9970
B5,2.14 nM,12500
B6,1.36 nM,17600
B7,1.3 nM,13700
B8,1.45 nM,12800
B9,0.87 nM,22200
B10,2.46 nM,12800
B11,2.14 nM,9660

# Molecular target: T2, murine CD22-ECD-His
# Experiment: ELISA, coated mouse CD22, antibody 0.01 nM
# Procedure: The plate was sealed with plastic film and incubated overnight at 4° C., the plate was washed 2 times with PBS the next day, and then a blocking solution [PBS+2% (w/w) BSA] was added for blocking at room temperature for 2 hours. […] After incubation at 37° C. for 2 hours, the plate was washed 3 times with PBS. HRP (horseradish peroxidase)-labeled secondary antibody (purchased from Sigma, catalog number: A0170) was added, and incubated at 37° C. for 2 hours, and the plate was washed 5 times with PBS. TMB substrate was added at 50 μl/well, and incubated at room temperature for 30 minutes, then a stop solution (1.0 N HCl) was added at 50 μl/well.
row,Binder,OD450
1,B1,0.07
2,B2,0.06
3,B3,0.06
4,B5,0.06
5,B7,0.05
6,B8,0.69
7,B9,0.05
8,B10,0.06
9,B11,0.05

# Molecular target: T3, cynomolgus monkey CD22 on peripheral blood B cells (cynomolgus monkey (Macaca fascicularis))
# T3 construct: whole, on cells; also called cynomolgus monkey B cells
# Experiment: FACS, cynomolgus PBMC, CD20+ B cells, antibody 1 nM
# Procedure: After the cell suspension was centrifuged, the cells were resuspended in PBS containing 1% BSA, and then the cells were counted. […] After washing the cells three times, APC-labeled secondary antibody anti-human IgG Fc (catalog number: 409306, purchased from Biolegend) was added. After incubation at room temperature in the dark for 30 minutes, the cells were washed 5 times, gently resuspended with PBS containing 1% BSA, and detected and analyzed by FACS (FACS Canto™, purchased from BD Company).
row,Binder,Proportion of VHH-Fc antibody positive cells to B cells (%)
1,B1,3%
2,B2,85%
3,B3,67%
4,B4,59%
5,B5,20%
6,B6,3%
7,B7,54%
8,B8,90%
9,B9,73%
10,B10,32%
11,B11,4%
